Source: ChEMBL document CHEMBL4888484, “Replenishing the malaria drug discovery pipeline: Screening and hit evaluation of the MMV Hit Generation Library 1 (HGL1) against asexual blood stage Plasmodium falciparum ,using a nano luciferase reporter read-out” (2022)
Out of some 150,000 compounds screened, about 540 (0.36%) showed an effect of 50% or more. The list shows a part of the results.

What follows are molecules tested on Plasmodium falciparum (assay: Primary screen in NF54 nanoGlo assay, in single point, at 2uM, 72h; a lower Z score goes with more inhibition). Details: timepoint 72 hour.
Format: functional, Erythrocyte

SMILES	% Inhibition	Z score
Cc1nn2c3ccccc3nc2n(Cc2ccccc2)c1=O	8%	-1.16
CC(C)S(=O)(=O)NC(=O)CC1CC(C)(C)C1	-1%	0.09
CC(C)(C)C(=O)NCc1cncc(-c2cccs2)c1	10%	-1.34
Cn1cc(N2CC(NC(=O)CC3CCCO3)CC2=O)cn1 (stereo not drawn)	-5%	0.88
CC(C)n1c(=O)sc2cc(NS(=O)(=O)c3ccccc3Br)ccc21	1%	-0.12
NC[C@H]1Cc2cccc(-c3ccc4[nH]ccc4c3)c2O1	8%	-1.2
CS(=O)(=O)c1ccc(-n2nc(C3CC3)nc2Cc2ccc3c(c2)OCO3)cc1	-15%	1.56
CC(C)[C@H](NC(=O)c1ccco1)C(=O)NCc1ncccc1O	-22%	4.15
Cc1cc(C(=O)NCc2cc3n(n2)CCNC3)cc2sc(N)nc12	2%	-0.23
CC(=O)c1ccc(N2C(=O)[C@@H]3C(Cc4c[nH]c5ccccc45)NC4(C(=O)Nc5c4ccc(C)c5C)[C@@H]3C2=O)cc1 (stereo partly drawn)	7%	-1.32
Cc1ncsc1CNCc1cc(Br)cc2c1OCC2	-9%	1.25
COc1ccccc1-c1c(C)nn2c(N3CCN(c4ccc(F)cc4)CC3)cc(C)nc12	-1%	0.09
COc1ccccc1N(CCC(N)=O)C(=O)CN1CC(C)OC(C)C1 (stereo not drawn)	-18%	2.32
COCc1ccc(NC(=O)N[C@H]2CCO[C@@H]2c2ccncc2)cc1C(F)(F)F	-15%	1.88
CC(C)c1ccc(CN2C[C@H]3CCCC(=O)N[C@H]3C2)cc1	28%	-3.13
Cc1ncsc1C(=O)N(C)Cc1ccc2c(c1)OCO2	9%	-1.17
CCCN(C)S(=O)(=O)Cc1ccc(C)cc1F	-6%	0.88
CO[C@H]1C[C@H]2CC[C@@H](C1)N2C(=O)c1ccc(-c2ccccc2)cc1	-1%	0.17
CCC(C)N(CC(=O)N(CCc1ccccc1)Cc1ccco1)C(=O)CC(C)CC(C)(C)C (stereo not drawn)	-8%	1.36
Cc1c[nH]c(CN2CCN(c3nc[nH]n3)CC2)c(C)c1=O	-9%	1.66
CCOC(=O)c1cc(NC(=O)c2cccc(Cl)c2F)[nH]n1	-3%	0.29
Cc1nc(N2CCCC(NC3CCc4ccccc43)CC2)nc2cc(S(C)(=O)=O)ccc12 (stereo not drawn)	-15%	1.97
COc1ccc([C@H]2C[C@@H]2C(=O)N2CC(NC(=O)C3CCC3)C2)cc1	-3%	0.43
CCOC(=O)c1cccnc1-c1ccc2[nH]ccc2c1	-7%	1.24
COc1nn(C)cc1NC(=O)N1CCC[C@H](Cc2nc(C)no2)C1	3%	-0.35
Cc1nonc1CN(C)Cc1cnn(C(C)C)c1	3%	-0.48
Cc1ccc(OC2CN([C@@H](C)CS(C)(=O)=O)C2)cc1	-10%	1.88

SMILES	% Inhibition	Z score
Cc1ccc(O[C@H]2CCN(C(=O)CCS(=O)(=O)c3ccccc3)C2)nn1	-8%	0.96
Cc1cc(NC[C@H](O)C(N)=O)nc(C2CC2)n1	9%	-1.15
CN(C)C(=O)NCC(=O)NCc1cccnc1N	-5%	0.78
CN(CC[C@H]1CN(C(=O)N2CCOCC2)CC[C@H]1CC(=O)O)c1ccccc1	-1%	0.12
Cc1cc(CN2CCNC(=O)C2)nc(-c2ccc(Cl)cc2)n1	-7%	1.33
Cc1ccccc1CS(=O)(=O)c1nnc([C@@H](NC(=O)OC(C)(C)C)C(C)C)o1	-15%	1.3
CN1CCCCC1CN1CCN(C(=O)C2CC3CCC2C3)CC1 (stereo not drawn)	-8%	1.01
COC[C@H]1CN(C2CCC2)CC12CCN(C(=O)C1CCCC1)CC2	-4%	0.44
COC(OC)C(=O)N1CCN(Cc2cn3cc(C)ccc3n2)CC1	-2%	0.24
Cc1ccc(S(=O)(=O)/N=C(/CN2CCCC2)N2CCN(S(=O)(=O)c3ccc(C)cc3)[C@H]2c2ccc(N(C)C)cc2)cc1	-2%	0.41
O=c1cc([O-])[n+]2c3n1CCCN3CCC2	-6%	0.92
C[C@@H](C1CC1)N(CC(F)(F)F)C(=O)Cn1cnc2c1c(=O)n(C)c(=O)n2C	-5%	0.75
COc1ccc(NC(=O)Cn2c(=O)ccc3cc(S(=O)(=O)N4CCCC4)ccc32)cc1OC	-11%	1.36
Cc1ccc(S(=O)(=O)N2CCC(O)(c3ccnn3C)CC2)cc1	4%	-0.84
COc1cc2c(cc1OC)CN(C1CCC(C)C1)CC2 (stereo not drawn)	5%	-0.81
CCC(C(N)=O)N1CCC(F)(F)C(C)C1 (stereo not drawn)	-12%	1.63
COc1ccccc1[C@@H]1CNC(=O)c2nc(C3(Cn4ccnc4)CC3)[nH]c2C1	-4%	0.7
Cc1[nH]c2c(C(F)(F)F)cccc2c1CCNC(=O)CCCc1cn(Cc2ccccc2)c2ccccc12	0%	0
Cc1nc(COc2ccc(Cl)cc2C)n([C@H]2CCS(=O)(=O)C2)n1	-16%	1.57
N#Cc1ccc(COCC2CCN(CC(=O)N3CCOCC3)CC2)cc1	-5%	0.52
CCN(C)c1ccccc1NC(=O)N1CC2CC=CCC2C1 (stereo not drawn)	4%	-0.57
CC1(C)Cc2cc(NC(=O)C3(O)CCCC3)ccc2O1	11%	-1.78
O=C(NCCc1cccs1)[C@H]1CCCN(c2nccn3nc(-c4ccccc4Cl)cc23)C1	-6%	0.7
CCNC(=O)CNCc1ccc(C)cc1Br	-13%	1.51
CC(C)=CCC[C@H](C)N(C)CCn1ccnc1	2%	-0.21
C[C@@H](c1ccon1)N(C)C(=O)c1cnc2ccccc2n1	-7%	1.31
CCCCC(=O)NCC1(N2CCCCC2)CCN(C)CC1	-3%	0.46
